Measurements as given in paper PMC4336329 (PLoS ONE, 2015).
Screen size: about 310,000 compounds; about 2,200 (0.71%) showed an effect of 50% or more. The effect is printed as a negative number. The list shows a part of the results.

These compounds were tested against human ether-à-go-go-related gene (hERG) potassium channel (human, UniProt Q12809) (assay: primary screen, population patch clamp on CHO cells stably expressing hERG).
human ether-à-go-go-related gene (hERG) potassium channel, sequence (Q12809 whole entry, looked up): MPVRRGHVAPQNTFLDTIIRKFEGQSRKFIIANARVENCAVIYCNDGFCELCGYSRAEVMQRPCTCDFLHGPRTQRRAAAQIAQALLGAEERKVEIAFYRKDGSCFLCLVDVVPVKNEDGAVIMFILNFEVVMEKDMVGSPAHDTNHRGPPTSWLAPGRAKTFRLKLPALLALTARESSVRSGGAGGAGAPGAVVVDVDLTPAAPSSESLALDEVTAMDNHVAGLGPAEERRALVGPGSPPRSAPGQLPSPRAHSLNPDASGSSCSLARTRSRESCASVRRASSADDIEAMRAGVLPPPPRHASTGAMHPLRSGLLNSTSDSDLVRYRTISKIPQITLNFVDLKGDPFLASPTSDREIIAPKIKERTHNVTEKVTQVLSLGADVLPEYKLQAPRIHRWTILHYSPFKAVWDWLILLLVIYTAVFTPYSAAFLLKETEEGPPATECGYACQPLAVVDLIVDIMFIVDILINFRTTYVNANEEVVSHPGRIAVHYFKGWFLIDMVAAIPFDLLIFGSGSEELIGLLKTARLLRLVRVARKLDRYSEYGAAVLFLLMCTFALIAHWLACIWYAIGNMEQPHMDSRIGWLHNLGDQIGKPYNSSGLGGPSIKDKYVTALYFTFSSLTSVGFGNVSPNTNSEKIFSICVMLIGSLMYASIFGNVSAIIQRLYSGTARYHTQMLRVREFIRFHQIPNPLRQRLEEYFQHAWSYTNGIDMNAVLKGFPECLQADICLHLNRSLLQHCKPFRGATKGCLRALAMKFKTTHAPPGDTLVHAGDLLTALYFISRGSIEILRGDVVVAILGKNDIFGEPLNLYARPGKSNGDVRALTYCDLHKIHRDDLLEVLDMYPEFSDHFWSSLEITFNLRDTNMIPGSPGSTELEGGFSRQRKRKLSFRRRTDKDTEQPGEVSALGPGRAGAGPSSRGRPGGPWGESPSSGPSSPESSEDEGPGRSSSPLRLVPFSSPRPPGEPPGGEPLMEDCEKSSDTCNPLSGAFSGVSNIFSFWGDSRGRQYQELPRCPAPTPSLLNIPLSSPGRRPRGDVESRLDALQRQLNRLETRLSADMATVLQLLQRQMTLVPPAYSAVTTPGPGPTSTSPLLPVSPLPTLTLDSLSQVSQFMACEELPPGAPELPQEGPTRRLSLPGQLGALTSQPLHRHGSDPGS

**Q.** With `CC/C(=C1/C(=O)CC(C)(C)C(C(=O)OC)C1=O)N1CCCC1` (stereo not drawn) as the compound, how does the “hERG current change (%, negative = inhibition) at 1uM” value read?
**A.** Its value is 16.5%.

**Q.** For `CC1(C)Cc2c(sc3nc4n(-c5ccccc5)cnn4c(=O)c23)CO1`, which “hERG current change (%, negative = inhibition) at 1uM” value is on record?
**A.** The value was 9.36%.

**Q.** Which “hERG current change (%, negative = inhibition) at 1uM” value does the source give for `CCc1ccc2c(c1)/C(=N/OC)C(=O)N2` here?
**A.** Its value is 9.76%.

**Q.** Which “hERG current change (%, negative = inhibition) at 1uM” value does the source give for `COc1ccc(CNc2cc(C)cc(C)c2)cc1OC` here?
**A.** The value was 10.1%.

**Q.** `CC(C)(C)c1ccc(C(=O)NCC2CCCN2S(=O)(=O)c2ccccc2)cc1` (stereo not drawn) was tested. Which “hERG current change (%, negative = inhibition) at 1uM” value did it give?
**A.** Its value is 10.6%.

**Q.** For `CCOC(=O)c1nn(-c2ccc(C)cc2)c(=O)c2c(N)scc12`, which “hERG current change (%, negative = inhibition) at 1uM” value is on record?
**A.** Its value is 1.06%.

**Q.** With `COc1cccc(N2CCN(C3CC(=O)N(c4cccc(Cl)c4)C3=O)CC2)c1` (stereo not drawn) as the compound, how does the “hERG current change (%, negative = inhibition) at 1uM” value read?
**A.** The value was 7.12%.

**Q.** With `Cc1cc(C)c(OCC(=O)OCC(=O)N(C)C2CCS(=O)(=O)C2)c(C)c1` (stereo not drawn) as the compound, how does the “hERG current change (%, negative = inhibition) at 1uM” value read?
**A.** Its value is 12.3%.

**Q.** `CCC(C)NC(=O)c1ccc(N2CCC3(CC2)OCCO3)c([N+](=O)[O-])c1` (stereo not drawn) was tested. Which “hERG current change (%, negative = inhibition) at 1uM” value did it give?
**A.** The value was 16.8%.

**Q.** For `CCOC(=O)c1c(CN2CCN(CCO)CC2)n(C)c2cc(Br)c(OC)cc12`, which “hERG current change (%, negative = inhibition) at 1uM” value is on record?
**A.** Its value is 9.82%.

**Q.** Which “hERG current change (%, negative = inhibition) at 1uM” value does the source give for `C#CCNC(=O)C1=C[C@@H](c2coc3ccccc3c2=O)C[C@@H](OCc2ccc(CO)cc2)O1` here?
**A.** The value was -1.27%.

**Q.** How did the “hERG current change (%, negative = inhibition) at 1uM” value turn out when `COc1ccccc1CCNC(=O)c1ccoc1C` was run?
**A.** The value was 7.59%.

**Q.** How did the “hERG current change (%, negative = inhibition) at 1uM” value turn out when `COc1ccc(Br)cc1C(=O)Nc1cc(C)cc(C)c1` was run?
**A.** The value was 4.56%.

**Q.** With `CCn1c2ccccc2c(=O)c2ccccc21` as the compound, how does the “hERG current change (%, negative = inhibition) at 1uM” value read?
**A.** The value was 8.54%.

**Q.** How did the “hERG current change (%, negative = inhibition) at 1uM” value turn out when `CNC(=S)N/N=C(\C)c1cccc([N+](=O)[O-])c1` was run?
**A.** The value was -0.488%.

**Q.** `COc1ccc(OC)c(S(=O)(=O)N2CCCCC2C(=O)O)c1` (stereo not drawn) was tested. Which “hERG current change (%, negative = inhibition) at 1uM” value did it give?
**A.** Its value is 0.919%.

**Q.** With `CCC(C)c1ccc(NC(=O)CN(C)CC(=O)Nc2cccc(OC)c2)cc1` (stereo not drawn) as the compound, how does the “hERG current change (%, negative = inhibition) at 1uM” value read?
**A.** The value was 6.64%.

**Q.** Which “hERG current change (%, negative = inhibition) at 1uM” value does the source give for `CCN(CC)S(=O)(=O)c1ccc(F)c(C(=O)OC2CC(C)OC2=O)c1` (stereo not drawn) here?
**A.** The value was 7.46%.

**Q.** How did the “hERG current change (%, negative = inhibition) at 1uM” value turn out when `Cc1ncc(CCl)c2c1OC(C)(C)OC2.Cl` was run?
**A.** The value was 11.9%.

**Q.** For `COc1ccc(CCNC(=O)Cn2c(-c3nonc3N)nc3ccccc32)cc1OC`, which “hERG current change (%, negative = inhibition) at 1uM” value is on record?
**A.** The value was 8.58%.

**Q.** `CCc1nnc(NC(=O)C(C)N2C(=O)C3C4C=CC(C4)C3C2=O)s1` (stereo not drawn) was tested. Which “hERG current change (%, negative = inhibition) at 1uM” value did it give?
**A.** Its value is 3.03%.

**Q.** `COc1cccc(CN(C)c2nc(-c3cccs3)nc3ccccc23)c1` was tested. Which “hERG current change (%, negative = inhibition) at 1uM” value did it give?
**A.** Its value is -9.05%.

**Q.** `CCCC(C)C(=O)Nc1ccccc1C(=O)OCC` (stereo not drawn) was tested. Which “hERG current change (%, negative = inhibition) at 1uM” value did it give?
**A.** The value was 7.75%.

**Q.** With `COc1cc2oc(-c3ccc(O)cc3)cc(=O)c2c(O)c1OC` as the compound, how does the “hERG current change (%, negative = inhibition) at 1uM” value read?
**A.** Its value is -9.67%.

**Q.** With `CCOc1ccc(-c2cc(C(=O)Nc3ccc4c(c3)OCCO4)c3ccccc3n2)cc1` as the compound, how does the “hERG current change (%, negative = inhibition) at 1uM” value read?
**A.** Its value is 13.3%.

**Q.** Which “hERG current change (%, negative = inhibition) at 1uM” value does the source give for `COC(=O)c1c(NC(=O)c2ccccc2)sc(C(N)=O)c1C` here?
**A.** Its value is 9.16%.

**Q.** With `CSc1ccc(CNCC2CCCO2)cc1.Cl` (stereo not drawn) as the compound, how does the “hERG current change (%, negative = inhibition) at 1uM” value read?
**A.** The value was 16.2%.

**Q.** For `O=C(CN1C(=O)c2cccnc2Oc2ccc(Cl)cc21)NC1CCCCC1`, which “hERG current change (%, negative = inhibition) at 1uM” value is on record?
**A.** Its value is 5.72%.

**Q.** With `Cc1nnc(SCC(=O)n2c3c(c4ccccc42)CCCC3)s1` as the compound, how does the “hERG current change (%, negative = inhibition) at 1uM” value read?
**A.** The value was 10.7%.

**Q.** With `O=C1CCCc2sccc2N1` as the compound, how does the “hERG current change (%, negative = inhibition) at 1uM” value read?
**A.** Its value is -4.07%.

**Q.** For `CCOC(=O)C1=C(CSc2nncn2C)NC(=O)NC1c1cc(OCC)ccc1OCC` (stereo not drawn), which “hERG current change (%, negative = inhibition) at 1uM” value is on record?
**A.** The value was 5.34%.

**Q.** With `COc1ccc(OC)c(C2=C/C(=C/c3ccccn3)C(=O)O2)c1` as the compound, how does the “hERG current change (%, negative = inhibition) at 1uM” value read?
**A.** Its value is -0.275%.

**Q.** Which “hERG current change (%, negative = inhibition) at 1uM” value does the source give for `Cc1cc(C)c(NC(=O)/C(C#N)=C/c2ccc(OCc3ccc(F)cc3)cc2)c(C)c1` here?
**A.** Its value is 5.26%.

**Q.** Which “hERG current change (%, negative = inhibition) at 1uM” value does the source give for `Cc1oc2c(CN3CCCC3)c(O)ccc2c(=O)c1-c1ccc(Br)cc1` here?
**A.** The value was 6.1%.

**Q.** For `CC(C)OC(=O)c1cccnc1SCC(=O)N(C)c1ccccc1`, which “hERG current change (%, negative = inhibition) at 1uM” value is on record?
**A.** The value was -5.57%.

**Q.** How did the “hERG current change (%, negative = inhibition) at 1uM” value turn out when `COc1ccc(-c2cc(C(=O)NCCN3CCOCC3)c3ccccc3n2)cc1OC` was run?
**A.** Its value is 12.6%.

**Q.** With `CCOC(=O)N1CCN(C(=O)c2cnn(-c3ccccc3)c2NC(=O)c2ccccc2F)CC1` as the compound, how does the “hERG current change (%, negative = inhibition) at 1uM” value read?
**A.** Its value is 2.98%.

**Q.** For `CN(C(=O)CS(=O)(=O)c1cn(CC(=O)N2CCCC2)c2ccccc12)c1ccccc1`, which “hERG current change (%, negative = inhibition) at 1uM” value is on record?
**A.** The value was 4.2%.

**Q.** Which “hERG current change (%, negative = inhibition) at 1uM” value does the source give for `Cn1c(N2CCOCC2)c(/C=N/OC(=O)c2ccc(F)cc2)c2ccccc21` here?
**A.** The value was 15.8%.

**Q.** For `CC1=C(C(=O)c2ccccc2)C(c2ccc(O)cc2)NC(=S)N1` (stereo not drawn), which “hERG current change (%, negative = inhibition) at 1uM” value is on record?
**A.** The value was 7.64%.

**Q.** For `Cc1cc(OCC(=O)Nc2cccnc2)c2c(C)cc(=O)oc2c1`, which “hERG current change (%, negative = inhibition) at 1uM” value is on record?
**A.** Its value is 12.7%.

**Q.** `CC1CCCC(C)N1CCNC(=O)CCn1nc(-c2ccccc2)ccc1=O` (stereo not drawn) was tested. Which “hERG current change (%, negative = inhibition) at 1uM” value did it give?
**A.** Its value is -16%.

**Q.** How did the “hERG current change (%, negative = inhibition) at 1uM” value turn out when `Cc1ccccc1NC(=O)CCC(=O)N/N=C/c1c[nH]c2ccccc12` was run?
**A.** The value was 3.45%.

**Q.** With `COc1ccc(CCNC(=O)C2(C)CCC(=O)N2Cc2ccc(C)cc2)cc1OC` (stereo not drawn) as the compound, how does the “hERG current change (%, negative = inhibition) at 1uM” value read?
**A.** The value was 16.8%.

**Q.** How did the “hERG current change (%, negative = inhibition) at 1uM” value turn out when `CC#CCN(CC#CC)S(=O)(=O)c1ccc(S(=O)(=O)N2CCOCC2)cc1` was run?
**A.** The value was -4.32%.

**Q.** How did the “hERG current change (%, negative = inhibition) at 1uM” value turn out when `Cc1ccc(C(=O)c2cc(Br)ccc2N)cc1` was run?
**A.** Its value is 12.5%.

**Q.** Which “hERG current change (%, negative = inhibition) at 1uM” value does the source give for `O=C(NCC(=O)N1CCc2ccccc2C1)c1ccccc1Cl` here?
**A.** The value was 4.85%.

**Q.** How did the “hERG current change (%, negative = inhibition) at 1uM” value turn out when `O=C(CNC(=O)c1ccc2c(c1)OCCO2)N=Nc1c(O)[nH]c2ccccc12` was run?
**A.** Its value is 11.7%.

**Q.** Which “hERG current change (%, negative = inhibition) at 1uM” value does the source give for `CCOC(=O)c1[nH]c(=O)[nH]c1COC(=O)c1cc2ccccc2o1` here?
**A.** Its value is -4.24%.

**Q.** Which “hERG current change (%, negative = inhibition) at 1uM” value does the source give for `CCn1c(SCC(=O)Nc2ccccc2N2CCOCC2)nnc1-c1ccccc1O` here?
**A.** Its value is -14.5%.

**Q.** How did the “hERG current change (%, negative = inhibition) at 1uM” value turn out when `CCc1ccc(-c2cc3c(=O)n(CC(=O)NCCN4CCCCC4C)nc(C)n3n2)cc1` (stereo not drawn) was run?
**A.** The value was -4.97%.

**Q.** How did the “hERG current change (%, negative = inhibition) at 1uM” value turn out when `O=[N+]([O-])c1cc(/C=N/N2CCN(c3ccccc3)CC2)ccc1Cl` was run?
**A.** Its value is 9.44%.

**Q.** For `Cc1ccc(NC(=O)CC2SC3=NCCN3C2=O)cc1` (stereo not drawn), which “hERG current change (%, negative = inhibition) at 1uM” value is on record?
**A.** Its value is -0.178%.

**Q.** For `Cc1nc(C(=O)NNC(=O)c2ccc(Cl)cc2)c(C(F)(F)F)o1`, which “hERG current change (%, negative = inhibition) at 1uM” value is on record?
**A.** Its value is 10%.

**Q.** How did the “hERG current change (%, negative = inhibition) at 1uM” value turn out when `CN1/C(=C/C(=S)NC(=O)C2(C)CC2(Cl)Cl)C(C)(C)c2ccccc21` (stereo not drawn) was run?
**A.** Its value is 7.71%.

**Q.** For `COc1ccc(C)cc1S(=O)(=O)Nc1cc2c3c(c1)CCC(=O)N3CCC2`, which “hERG current change (%, negative = inhibition) at 1uM” value is on record?
**A.** Its value is 11.1%.

**Q.** How did the “hERG current change (%, negative = inhibition) at 1uM” value turn out when `N#Cc1nc(-c2ccc(F)cc2)oc1NCCN1CCOCC1` was run?
**A.** The value was 14.1%.
